According to PubChem BioAssay AID445 (National Center for Advancing Translational Sciences (NCATS), 2006):
Among all 110,000 compounds or so, about 40 (0.04%) were called active. Inconclusive means that the source gave no clear call. Such entries were picked first, then a sample of the others. Calls come from the whole dose curve; as a rule, active = well fitted curve in the direction sought with a large enough effect in the signal ratio (not every such curve was filed as active); inconclusive = small, poorly fitted or top-dose-only effect, or a change in a side signal; inactive = flat fitted curve, though single readings scatter; the % refers to the signal ratio. Where the call is inconclusive, the potency comes from a doubtful curve fit.

experiment: IkB Signaling; conditions: ABC-DLBCL IkBa-CBG/CBR dual luciferase ratio (green luciferase fused to IkBa over red control in OCI-Ly3 lymphoma cells), 4 h; IkBa stabilization activation: at 57.1 µM (top of the series), scaled: untreated 0%, proteasome inhibitor 100% unless noted;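 for IkBa stabilization activation: 0% = basal untreated cells and 100% = reference inhibitor full response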
Method in brief: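 In this assay, an IκBα–CBG68 fusion accumulates when IKK-driven degradation is blocked; native CBR normalizes for cell number. OCI-Ly3 cells were treated 4 h with compound and doxycycline, then green and red light read after Chroma-Glo addition.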
Potency is the fitted concentration of half-maximal effect.

Row | Compound | IkBa stabilization activation | Potency
1 | CCCCCCn1c(SCC(C)C)nc2c1c(=O)[nH]c(=O)n2C | inactive | –
2 | COc1ccc(-c2cc(C(F)(F)F)nc(NCc3ccccc3)n2)cc1 | inconclusive: 0.0927% [signal inhibitor] | –
3 | Cn1c(=O)c(-c2ccc(Cl)cc2)nc2cnc(Nc3ccccc3)nc21 | inactive: -0.126% [at 11.4 µM, scaled: untreated 0%, proteasome inhibitor 100%] | –
4 | Fc1ccc(C(Nc2ccc(Cl)c(C(F)(F)F)c2)c2nnc(-c3ccccc3)o2)cc1 (stereo not given) | inconclusive: 2.41% [signal inhibitor] | –
5 | O=C(c1cc(-c2ccco2)on1)N1CCN(c2ccccc2)CC1 | – | inconclusive: 15.8 µM [signal inhibitor, partial curve]
6 | O=C(Nc1ccc(Br)cc1)c1ccc(Br)c(S(=O)(=O)N2CCCCC2)c1 | inconclusive: 0.171% [signal inhibitor] | –
7 | Cc1ccc(CCNC(=O)c2cc3sccc3n2Cc2ccc(F)cc2)cc1 | inactive | –
8 | Cc1cn2c(=O)cc(COC(=O)c3cccc(NC(=O)COc4ccc(Cl)cc4)c3)nc2s1 | inconclusive: 10.3% [signal inhibitor] | –
9 | Cc1nc2cnc(N3CCOCC3)nc2n(CCc2ccccc2)c1=O | inactive: -0.389% [at 11.4 µM, scaled: untreated 0%, proteasome inhibitor 100%] | –
10 | Cc1ccc(C(=O)c2cn(Cc3ccccc3F)c3cc4c(cc3c2=O)OCO4)cc1 | inconclusive: -0.752% [signal inhibitor] | –
11 | CCc1ccccc1N(C)S(=O)(=O)c1ccc2[nH]cc(C(=O)NCCOC)c(=O)c2c1 | inconclusive: 0.634% [signal inhibitor] | –
12 | CC(C)CCNC(=O)CN1C(=O)c2cccnc2Oc2ccccc21 | inactive | –
13 | CN(C)c1ccc(C(CNC(=O)c2ccccc2F)N2CCc3ccccc32)cc1 (stereo not given) | – | inconclusive: 20 µM [signal inhibitor]
14 | Cc1nn(-c2ccccc2)c2c1N(CCCC(=O)NCc1ccc(Cl)cc1)C(=O)CS2 | inconclusive: 5.26% [signal inhibitor] | –
15 | O=C(NCc1ccco1)c1c[nH]c2ccc(S(=O)(=O)Nc3ccc(F)cc3F)cc2c1=O | inconclusive: 3.31% [signal inhibitor] | –
16 | CN1CCN(C(=O)c2cnn(-c3cccc(Cl)c3)c2C2CCN(C(=O)OC(C)(C)C)CC2)CC1 | inconclusive: 1.37% [signal inhibitor] | –
17 | COc1ccc(-c2nnc(SCC(=O)NCc3ccccc3)nc2-c2ccc(OC)c(OC)c2)cc1OC | inactive | –
18 | Cc1ccc(CN(Cc2ccco2)C(=O)COc2ccc(Cl)cc2Cl)cc1 | inconclusive: -1.37% [signal inhibitor] | –
19 | CC(C)(C)c1ccc(S(=O)(=O)c2cnc(SCC(=O)Nc3ccc(F)c(Cl)c3)[nH]c2=O)cc1 | – | inconclusive: 20 µM [signal inhibitor]
20 | CCOc1ccc(NC(=O)Cc2ccc(NC(=O)N3CCCCc4ccccc43)cc2)cc1 | inconclusive: 1.1% [signal inhibitor] | –
21 | COC(=O)c1ccc([C@H]2Nc3ccc(S(=O)(=O)Nc4ccc(C)cc4)cc3[C@H]3C=CC[C@H]32)cc1 | inconclusive: 8.9% [signal inhibitor] | –
22 | COc1ccc2ccccc2c1C1CC(=O)N2CN(C3CCCCC3)CSC2=C1C#N (stereo not given) | inconclusive: 4.78% [signal inhibitor] | –
23 | Cc1ccc(-c2nn(C)c(=O)c3ccccc23)cc1CO | inactive | –
24 | COc1cc(-c2noc(-c3ccc(N4CCOCC4)c([N+](=O)[O-])c3)n2)cc(OC)c1OC | inconclusive: 2.61% [signal inhibitor] | –

Row | Compound | IkBa stabilization activation | Potency
25 | Cc1onc(-c2ccccc2Cl)c1C(=O)Nc1ccc(-n2nncc2C(C)(C)C)cc1 | inactive | –
26 | COc1cccc(-c2nc(CS(=O)(=O)CC(=O)Nc3cc(F)ccc3F)c(C)o2)c1 | inactive | –
27 | Cc1ccc(OCC(=O)N(Cc2ccco2)Cc2ccco2)cc1 | inconclusive: 3.54% [signal inhibitor] | –
28 | CCCC(=O)Nc1cnc(NC(=O)c2cccc(F)c2)cc1C | inactive | –
29 | Cc1ccc2cccc(S(=O)(=O)Nc3ccc4c(c3)OCO4)c2n1 | inconclusive: -0.0378% [signal inhibitor] | –
30 | COc1ccc(S(=O)(=O)n2nc(-c3cc(OC)c(OC)c(OC)c3)cc2N)cc1OC | inactive | –
31 | CCn1cc(C(=O)NC2CCCCCC2)c2cc(OC)c(OC)cc2c1=O | inactive | –
32 | CCOc1ccc(CCNC(=O)Cc2ccc(NC(=O)N3CCSc4ncccc43)cc2)cc1 | inconclusive: -1.29% [signal inhibitor] | –
33 | O=C(c1cnn2c(C(F)F)cc(-c3ccccc3)nc12)N1CCN2CCCC2C1 (stereo not given) | inactive | –
34 | COc1ccc(-c2n[nH]c(C)c2-c2ccc(Cl)cc2)c(O)c1OC | inconclusive: -3.45% [signal inhibitor] | –
35 | COc1cc(N)c(Cl)cc1C(=O)CCC1CCN(CCNS(C)(=O)=O)CC1 | inactive | –
36 | O=C(O)c1coc2ccccc12 | inactive | –
37 | COc1cc(OC)cc(C(=O)Nc2nc(-c3nnn(-c4ccc(F)c(Cl)c4)c3C)ns2)c1 | inactive | –
38 | O=C(CSc1nc(O)c(C/C=C/c2ccccc2)c(=O)[nH]1)Nc1cccc(F)c1 | inconclusive: 17% [signal inhibitor] | –
39 | COc1cc(NC(=O)c2ccccc2)c(OC)cc1NC(=O)CN1CCOCC1 | inactive | –
40 | COc1ccc(-c2csc3c2[N+]2=CCC=C2C3=O)cc1 | inconclusive: 20.4% [signal activator] [at 11.4 µM, scaled: untreated 0%, proteasome inhibitor 100%] | –
41 | CCCCSc1nnc(-c2ccc(C)cc2)o1 | – | inconclusive: 12.6 µM [signal inhibitor, partial curve]
42 | COc1ccc(-n2c(SCC(=O)NCc3ccccc3)nc3n[nH]c(C)c3c2=N)cc1 | inactive | –
43 | CN(C(=O)c1oc(=O)c2ccccc2c1-c1ccccc1)c1cccc(Cl)c1 | inconclusive: -0.507% [signal inhibitor] | –
44 | CCCn1c(=O)c2sccc2n2c(CCCC(=O)Nc3ccccc3F)nnc12 | inconclusive: -0.801% [signal inhibitor] | –
45 | O=C1CC(c2cccc(F)c2)c2c(n3ncnc3[nH]c2=O)N1 (stereo not given) | inactive | –
46 | Cc1ccc(N2CCN(C(=O)c3c(C)oc4nc(C)nc(N5CCCC5)c34)CC2)c(C)c1 | inconclusive: 1.58% [signal inhibitor] | –
47 | COc1cccc(NS(=O)(=O)c2ccc(Br)s2)c1 | inconclusive: 9.38% [signal inhibitor] | –
48 | CCCCCCC(=O)N1CCC(c2nc3c(nnn3Cc3ccccc3Cl)c(=O)[nH]2)CC1 | inconclusive: 0.762% [signal inhibitor] | –

Row | Compound | IkBa stabilization activation | Potency
49 | Cc1cccc(-n2ncc(C(=O)NCc3ccco3)c2C2CCN(C(=O)OC(C)(C)C)CC2)c1 | inconclusive: 8.27% [signal inhibitor] | –
50 | Cc1nc2cccnc2n1C1CCN(S(=O)(=O)c2ccc(C(C)C)cc2)CC1 | inconclusive: 6.32% [signal inhibitor] | –
51 | CCCOC(=O)Cn1c(=O)c2cc3c(=O)n(CC(=O)OCCC)c(=O)c3cc2c1=O | inactive | –
52 | CCOc1ccc2[nH]c(=O)c(CN(Cc3cccs3)Cc3nnnn3C(C)(C)C)cc2c1 | inconclusive: 1.95% [signal inhibitor] | –
53 | O=C(CSc1nc(-c2ccco2)nc2cc(=O)[nH]n12)Nc1ccccc1F | inconclusive: -0.008% [signal inhibitor] | –
54 | Cc1cccc(N2CCN(C(=O)C3CCN(S(=O)(=O)c4cccc5nsnc45)CC3)CC2C)c1 (stereo not given) | inconclusive: -0.0323% [signal inhibitor] | –
55 | COc1ccc(NC(=O)CSc2nc(C)cc(C)c2C(=O)Nc2cccc(C)c2)cc1 | inconclusive: 0.992% [signal inhibitor] | –
56 | CCOc1ccc(-c2cc(CCCC(=O)NCCc3ccc(OCC)c(OCC)c3)no2)cc1 | inconclusive: 10.2% [signal inhibitor] | –
57 | C[C@@H](NC(=O)CN(c1ccccc1)S(=O)(=O)N(C)C)c1ccccc1 | inconclusive: 1.33% [signal inhibitor] | –
58 | Cc1ccc(NC(=O)Nc2ccc3nc(N4CCN(C)CC4)cc(C)c3c2)cc1C | inconclusive: -8.25% [signal inhibitor] | –
59 | Cc1ccccc1NC(=O)c1ccc(F)c(S(=O)(=O)NC2CCCC2)c1 | inconclusive: 0.625% [signal inhibitor] | –
60 | CCN1CCN(C(=O)c2ccc3c(c2)N(Cc2ccccc2F)C(=O)c2ccccc2S3(=O)=O)CC1 | inconclusive: -0.393% [signal inhibitor] | –
61 | c1ccc2c(CSCc3cccc4ccccc34)cccc2c1 | inactive: -0.834% [at 11.4 µM, scaled: untreated 0%, proteasome inhibitor 100%] | –
62 | CC(=O)c1cccc(NC(=O)CSc2nnc3ccc(-c4ccc(C)cc4)nn23)c1 | inconclusive: 1.61% [signal inhibitor] | –
63 | Cn1c(C(=O)N2CCCc3ccccc32)cc2c(=O)n3ccccc3nc21 | inactive | –
64 | CCn1nc(NC(=O)c2ccncc2)c2cc3ccccc3nc21 | inactive | –
65 | O=C(NCc1ccco1)C1CCN(C(=O)N2CCOc3ccc(Cl)cc32)CC1 | inconclusive: 8.24% [signal inhibitor] | –
66 | Cc1cc2c(cc1S(=O)(=O)CCC(=O)NC1CCC(C)CC1)OCC(=O)N2 (stereo not given) | inactive | –
67 | CCn1c(=N)c(C(=O)NC2CCCCC2)cc2c(=O)n3cccc(C)c3nc21 | inactive | –
68 | O=C1CC(c2nnc(Cc3ccc(Cl)cc3)o2)CN1c1ccccc1 (stereo not given) | inactive | –
69 | CCOC(=O)c1ccc(Oc2nc(NC)nc(SC)n2)cc1 | inactive | –
70 | COc1cc(Cl)c(C)cc1Nc1nc2ccccc2nc1NS(=O)(=O)c1ccccc1 | – | inconclusive: 3.16 µM [signal inhibitor, partial curve]
